# Source: the RNAGym collection of RNA variant scans (doi:10.7554/elife.90254)
# Read counts are not given, so values of variants with three or more changes are uncertain.
# B1: OR4K15 (parent)
# chain: GUUAACGGUCAUAGGCCAUGGAAACUAGGAGCACCAUUUCGCUGCCAGUGAAGAAAUGAACAAAGAAAAUCUGGGCCAGGCAGGCAUCAAAAGAAAUAGUCUUGCGCUCAACCAGAAAGUCUGUAAUCAUUUUAAGGGUA
# Variants of: B1
# Assay: self-cleavage, relative activity (ratio to wild type); higher = more cleavage; in vitro, sequencing; the parent is a self-cleaving ribozyme
row,Variant,self-cleavage
1,GUUAACGGUCAUAGGCCAUGGAAGCUAGGAGCACCAUUUCGCUGCCAGUGAAGAAAUGAACAAAGAGAAUCUGGGCCGGGCAGGCAUCAAAAGAAAUAGUCUUGCGCUCAACCAGAAAGUCAGUAAUCAUUUUAAGGGUA [A24G A67G A78G U122A],0.24
2,GUUAACGGUCAUAGGCCAUGGAAGCUAGGAGCACCAUUUCGCUGCCAGUGAAGAAAUGAACAAAGAAGAUCAGGGCCAGGCAGGCAUCAAAAGAAAUAGUCUUGCGCUCAACCAGAAAGUCUGUAAUCAUUUUAAGGGUA [A24G A68G U72A],0.26
3,GUUAACGGUCAUAGGCCAUGGAAGCUAGGAGCACCAUUUCGCUGCCAGUGAAGAAAUGAACAAAGAAAAUCUGGGCCAGGCAGGCUUCAAAGGAAAUAGUCUUGCGCUCAACCAGAAAGUCUGUAAUCAUUUUAAGGGUA [A24G A86U A92G],1.62
4,GUUAACGGUCAUAGGCCAUGGAAGCUAGGAGCACCAUUUCGCUGCCAGUGAAGAAAUGAACAAAGAAAAUCUGGGCCAGGCAGGCAUCAAACGAAAUAGUCUUGCGCUCAACCGGAAAGUCUGUAACCAUUUUAAGGGUA [A24G A92C A114G U127C],0.04
5,GUUAACGGUCAUAGGCCAUGGAAGCUAGGAGCACCAUUUCGCUGCCAGUGAAGAAAUGAACAAAGAGAAUCUGGGCCAGGCAGGCAUCAAAAGAAAUAGUCUUGCGCUCAACCAGAGAGUCUGUAAUCGUUUUAAGGGUA [A24G A67G A117G A129G],0.64
6,GUUAACGGUCAUAGGCCAUGGAAGCUAGGAGCACCAUUUCGCUGCCAGUGAAGAAAUGAACAAAGAAAAUCUGGGCCAGGCAGGCAUCAGAAGAAAUAGUCUCGCGCUCAACCAGAAAGUCUGUAAUCAUUUUAAGGGUA [A24G A90G U103C],0.47
7,GUUAACGGUCAUAGGCCAUGGAAGCUAGGAGCACCAUUUCGCUGCCAGUGAAGAAAUGAACAAAGAAAAUCUGGGCCAGGCAGGCAUCAAAAGAAAUAGUCUUGCGCUCAACUAGACGGUCUGUAAUCAUUUUAAGGGUA [A24G C113U A117C A118G],0
8,GUUAACGGUCAUAGGCCAUGGAAGCUAGGAGCACCAUUUUGCUGCCAGUGAAGAAAUGAACAAAGAAGAUCUGGGCCAGGCAGGCAUCAAAAGAAAUAGUCUUGCGCUCAACCAGAAAGUCUGUAAUCAUUUUAAGGGUA [A24G C40U A68G],1.35
9,GUUAACGGUCAUAGGCCAUGGAAGCUAGGAGCACCAUUUCGCUGCCAGUGAAGAAAUGAACAAAGAGAAUCUGGGCCAGGCAGGCAUCAAAAGAAAUAGUCUCGCGCUCAACCAGAAAGUCUGUAAUCAUUUUAAGGGUA [A24G A67G U103C],0.54
10,GUUAACGGUCAUAGGCCAUGGAAGCUAGGAGCACCAUUUCGCUGCCAGUGAAGAAAUGAACAAAGAAAAUCUGGGCCAGGUAGGCAUCAAAAGAAAUAGUCUGGCGCUCAACCAGAAAGUCUGUAAUCAUUUUAAGGGUA [A24G C81U U103G],0
11,GUUAACGGUCAUAGGCCAUGGAAGCUAGGAGCACCAUUUCGCUGCCAGUGAAGAAAUGAACAAAGAAAAUCUGGGCCAGGCAGGAAUCAAAAGAAACAGUCUUGCGCUCAACCAGAAAGUCUGUAAUCAUUUUAAGGGUA [A24G C85A U97C],0.71
12,GUUAACGGUCAUAGGCCAUGGAAGCUAGGAGCACCAUUUCGCUGCCAGUGAAGAAAUGAACAAAGAAGAUCUGGGCCAGGCAGGCAUCAAAUGAAGUAGUCUUGCGCUCAACCAGAAAGUCUGUAAUCAUUUUAAGGGUA [A24G A68G A92U A96G],1.78
13,GUUAACGGUCAUAGGCCAUGGAAGCUAGGAGCACCAUUUCGCUGCCAGUGAAGAAAUGAACAAAGAGAAUCUGGGCCAGGCAGGCAUCAAAAGAAAUAGCCUUGCGCUCAACCAGAAAGUCUGUAAUCAUUUUAAGGGUA [A24G A67G U100C],1.94
14,GUUAACGGUCAUAGGCCAUGGAAGCUAAGAGCACCCUUUCGCCGCCAGUGAAGAAAUGAACAAAGAAAAUCUGGGCCAGGCAGGCAUCAAAAGAAAUAGUCUUGCGCUCAACCAGAAAGUCUGUAAUCAUCUUAAGGGUA [A24G G28A A36C U43C U131C],1.7
15,GUUAACGGUCAUAGGCCAUGGAAGCUAGGAGCACCAUUUCGCUGCCAGUGAAGAAAUGAACAAAGAAAGUCUGGGCCAGGCAGGCACCAAAAGAAAUAGUCUUGCGCUCAACCAGAAAGUCUGUAAUCAUCUUAAGGCUA [A24G A69G U87C U131C G138C],0.44
16,GUUAACGGUCAUAGGCCAUGGAAGCUAGGAGCACCAUUUCGCUGCCAGUGAAGAAAUGAACAAAGAAAAUCUGGGCCAGGCAGGCAUCAAAAGAGAUAGUCCUGCGCUCAGCCAGAAAGUCUGUAAUCAUUUUAAGGGUA [A24G A95G U102C A111G],0.05
17,GUUAACGGUCAUAGGCCAUGGAAGCUAGGAGCACCAUUUCGCUGCCAGUAAAGAAAUGAACAAAGAAAAUCUGGGCCAGGCAGGCAUCAAAAGAAAUAGUCUUGCGCUCAGCCAGAAAGUCUGUAAUCAUUUUAAGGGUA [A24G G50A A111G],0.03
18,GUUAACGGUCAUAGGCCAUGGAAGCUAGGAGCACCAUUUCGCUGCCAGUGAAGAAAUGAACAAAGAAAAUCUGGGCCAGGCAGGCAUCAAGAGAAAUAGUCUUGCGCUCAACCGGAAAGUCUGUAAUCAUUUUAAGGGUA [A24G A91G A114G],0.29
19,GUUAACGGUCAUAGGCCAUGGAAGCUAGGAGCAUCAUUUCGCUGCCAGUGAAGAAAUGAACAAAGAAAAUCUGGGCCAGGCAGGCAUCAAAAGAAAUAGUCUUGCGCUCAACCAGAAUGUCUGUAAUCAUUUUAAGGGUA [A24G C34U A118U],0.98
20,GUUAACGGUCAUAGGCCAUGGAAGCUAGGAGCACCAUUUCGCUGCCAGUGAAGAAAUGAAUAAAGAAAAUCUGGGCCAGGCGGGCAUCAAAAGAAAUAGUCUUGCGCUCAACCAGAAGGUCUGUAUUCAUUUUAAGGGUA [A24G C61U A82G A118G A126U],0.58
